In PubChem BioAssay AID894 (National Center for Advancing Translational Sciences (NCATS), 2007):
Several values for one entry are separate records, joined by “and”; a condition that tells them apart may be missing. Identical values can stand only once. About 6,500 (4.3%) of roughly 150,000 compounds were called active. The shares of active, inactive and inconclusive entries below differ from those in the screen. Calls come from the whole dose curve; as a rule, active = well fitted inhibition curve with a large enough effect (not every such curve was filed as active); inconclusive = small, poorly fitted or top-dose-only effect, or another doubt; inactive = no such curve, though single readings can be large or run the other way. Potencies of inconclusive entries are doubtful fits and often do not repeat.

biological target: 15-hydroxyprostaglandin dehydrogenase [NAD(+)] (Homo sapiens) (UniProt P15428); assay: qHTS Assay for Inhibitors of HPGD (15-Hydroxyprostaglandin Dehydrogenase); details: purified HPGD, NADH fluorescence kinetic, PGE2 substrate; activity change, negative = inhibition: active compounds read low
Sequence of UniProt P15428 (P15428 whole entry, looked up): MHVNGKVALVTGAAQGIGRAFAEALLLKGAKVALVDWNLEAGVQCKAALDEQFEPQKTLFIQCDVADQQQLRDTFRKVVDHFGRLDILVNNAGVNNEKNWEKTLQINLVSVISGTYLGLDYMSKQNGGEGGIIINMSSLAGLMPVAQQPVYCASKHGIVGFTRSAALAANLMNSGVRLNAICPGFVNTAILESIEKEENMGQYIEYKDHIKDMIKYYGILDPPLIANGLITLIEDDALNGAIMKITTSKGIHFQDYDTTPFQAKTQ
In short: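 20 nM HPGD preincubated 15 min at room temperature with compound in 50 mM Tris-HCl pH 8, 0.01% Tween 20. Started with 1 mM NAD+ and 30 uM prostaglandin E2; NADH fluorescence (360/450 nm) read 5 times over 30-s intervals, last minus first.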
% is set by controls: 0 for no effect and ±100 for the full control effect; potency is the fitted concentration of half-maximal effect; tags give direction and shape of the fitted curve.

| Compound | activity change, negative = inhibition | Potency |
| --- | --- | --- |
| CCOc1ccc(N2C(=O)/C(=C/c3cccs3)N(C)C2=S)cc1 | inactive: -9.47% |  |
| CC1CC(C)CN(C(=O)COC(=O)CCc2nc3ccccc3c(=O)[nH]2)C1 (stereo not drawn) | inactive: -9.01% |  |
| Cc1[nH]c2ccccc2c1C(=O)C(=O)N1CCCc2ccccc21 |  | inconclusive: 31.6 µM [inhibitor, partial curve] |
| Cc1sc2ncnc(Sc3nc4ccccc4s3)c2c1C | inactive: -10.4% |  |
| Cn1c(NCCCO)nc2c(c1=O)C1(CCCCC1)Cc1ccccc1-2 |  | inconclusive: 7.94 µM [inhibitor, full curve] |
| Cc1cc(C)c2c(N)c(S(=O)(=O)c3ccccc3)sc2n1 |  | inconclusive: 17.8 µM [inhibitor, partial curve] |
| CCc1c(C(=O)N/N=C/c2ccc(C)o2)csc1C |  | inconclusive: 28.2 µM [inhibitor, partial curve] |
| O=C(c1cc2sccc2n1Cc1ccccc1)N1CCN(c2nc3ccccc3s2)CC1 | inactive: -13.1% |  |
| CN1C(=O)/C(=N/OC(=O)c2ccccc2)c2ccccc21 |  | active: 14.1 µM |
| Nn1c(Cc2cccc3ccccc23)nnc1SCc1ccc(Cl)c(Cl)c1 |  | active: 2.82 µM |
| CC(C)NC(=O)CN1CCN(c2ncccn2)CC1 | inactive: -14.7% |  |
| C=CCN1C(=O)c2ccccc2Sc2ccc(C(=O)N3CCN(C)CC3)cc21 | inactive: -14.3% |  |
| Cc1ccc(-c2nc3ccccc3[nH]2)cc1N |  | inconclusive: 28.2 µM [inhibitor, partial curve] |
| COc1cc(/C=C/C(=O)O)cc(S(=O)(=O)NCCCO)c1OC |  | inconclusive: 31.6 µM [inhibitor, partial curve] |
| Cc1ccc(C)n1-c1ccc(C(=O)NCC2CCCO2)cc1 (stereo not drawn) |  | active: 8.91 µM |
| O=C(Nc1cccc(F)c1)c1cccnc1NCCc1ccccc1 | inactive: -28.4% |  |
| CCN(CC)c1ccc(/C=N/N2CCN(Cc3ccc(C)cc3C)CC2)c(O)c1 | inactive: -8.33% |  |
| COc1ccc(-n2nc(C(=O)NCc3ccco3)c3c4ccccc4n(C)c3c2=O)cc1 |  | inconclusive: 28.2 µM [inhibitor, partial curve] |
| COc1ccc(-c2c(NC(C)=O)n(C)c3ccccc3c2=O)cc1 |  | inconclusive: 28.2 µM [inhibitor, partial curve] |
| CN(C)c1ccc(C(=O)Nc2nc3c(s2)CCCC3)cc1 |  | inconclusive: 35.5 µM [inhibitor, partial curve] |
| COc1ccc2[nH]c(=O)c3c(c2c1)OC(C)(C)C=C3 |  | inconclusive: 20 µM [inhibitor, partial curve] and inconclusive: 31.6 µM [inhibitor, partial curve] |
| Cc1ccc(Nc2cc(C)nc(-c3ccccc3O)n2)cc1 |  | inconclusive: 31.6 µM [inhibitor, single point] |
| Cc1ccc(NC(=O)c2cc(-c3ccco3)on2)cc1C |  | inconclusive: 25.1 µM [inhibitor, partial curve] |
| CCOc1ccc(/C=C2\SC(N3CCc4ccccc4C3)=NC2=O)cc1 |  | active: 22.4 µM |
| Nc1nc(CSc2nnnn2-c2ccccc2)nc(N2CCCc3ccccc32)n1 |  | inconclusive: 22.4 µM [inhibitor, partial curve] |

| Compound | activity change, negative = inhibition | Potency |
| --- | --- | --- |
| CC(=O)C1=C(C)OC(N)=C(C#N)C1c1cc2cccc(C)c2nc1Cl (stereo not drawn) |  | inconclusive: 15.8 µM [inhibitor, partial curve] |
| N#Cc1c(-c2ccco2)cc(C2CC2)nc1N |  | inconclusive: 28.2 µM [inhibitor, partial curve] |
| Cc1cccc(CSC(Nc2ccc(F)cc2)=C(C#N)C#N)c1 | inactive: -3.91% |  |
| CCOC(=O)N1CCN(C(=O)c2ccc3nc4ccsc4c(=O)n3c2)CC1 |  | inconclusive: 3.16 µM [inhibitor, full curve] |
| CCS(=O)(=O)Nc1cccc(-c2nc3cccnc3s2)c1C |  | inconclusive: 25.1 µM [inhibitor, partial curve] |
| CCn1c(SCC(=O)Nc2cccnc2Cl)nnc1-c1ccccc1 | inactive: -3.21% |  |
| COc1ccccc1NS(=O)(=O)c1cc(NC(=O)Nc2ccc(Cl)cc2Cl)ccc1N1CCCCC1 |  | inconclusive: 25.1 µM [inhibitor, single point] |
| O=c1[nH]c2ccc(Cl)cc2c(-c2ccccc2)c1SC(=S)N1CCCCC1 |  | inconclusive: 39.8 µM [inhibitor, single point] |
| CCOCCCNC(=O)c1ccc2c(c1)ncn2C1CCCC1 |  | active: 17.8 µM |
| Cc1ccc(/C=N/NC(=O)c2cccc(S(=O)(=O)Nc3ccccc3Cl)c2)o1 |  | inconclusive: 20 µM [inhibitor, partial curve] |
| COc1ccc2nc3c(cc2c1)Cc1ccccc1-3 |  | inconclusive: 31.6 µM [inhibitor, partial curve] |
| CCn1c(NCc2cc(OC)ccc2OC)nc2ccccc21 | inactive: -9.35% |  |
| CC1CCCN(C(=O)c2ccc3c(c2NCCO)C(=O)c2ccccc2C3=O)C1 (stereo not drawn) |  | inconclusive: 28.2 µM [inhibitor, partial curve, poor fit] |
| Cc1occc1C(=O)N/N=C/C1=C(N2CCOCC2)C(=C\c2ccc(Cl)cc2Cl)/CC1 |  | inconclusive: 20 µM [inhibitor, partial curve] |
| CCOC(=O)Nc1nc(-c2ccc(Cl)cc2Cl)cs1 | inactive: -13.9% |  |
| COc1ccc(C(=O)O/N=C(\N)c2ccccc2)c(OC)c1 |  | active: 14.1 µM |
| CCNc1ncc2nc(-c3cccc(C#N)c3)c(=O)n(C)c2n1 |  | inconclusive: 14.1 µM [inhibitor, partial curve] |
| CCCC(c1nnnn1Cc1ccco1)N1CCN(C2CCCC2)CC1 (stereo not drawn) | inactive: -7.05% |  |
| COc1ccc(C(=O)C(OC(=O)c2ccccc2Cl)c2ccccc2)cc1 (stereo not drawn) | inactive: -7.82% |  |
| CN(C)c1ccc(-c2nc(Nc3ccncc3)c3ccccc3n2)cc1 |  | inconclusive: 15.8 µM [inhibitor, partial curve] |
| Cc1cc(=O)c2cc(Cl)ccc2[nH]1 |  | inconclusive: 35.5 µM [inhibitor, partial curve] |
| COCCN1CCn2c(nc3cc(NC(=O)NC4CCCCC4)ccc32)C1 |  | inconclusive: 28.2 µM [inhibitor, partial curve] |
| O=c1c(-c2ccc(O)cc2)coc2c(C3OC(CO)C(O)C(O)C3O)c(O)ccc12 (stereo not drawn) |  | inconclusive: 25.1 µM [inhibitor, partial curve] |
| Cc1cc(C)c2c(N)c(C(=O)NN3CC(=O)N(c4ccccc4F)CC3=O)sc2n1 |  | inconclusive: 25.1 µM [inhibitor, partial curve, poor fit] |
| N[C@H](CCCP(=O)(O)O)C(=O)O | inactive: -7.82% and inactive: -11.1% |  |

| Compound | activity change, negative = inhibition | Potency |
| --- | --- | --- |
| O=C(NCc1ccccc1)c1cc(-c2ccncc2)nc2ccc(S(=O)(=O)N3CCOCC3)cc12 | inactive: -22.5% |  |
| C#CC(N)CCC(=O)O (stereo not drawn) | inactive: -6.55% |  |
| CCN1C(=O)N/C(=C/c2ccc(Sc3ccc(C)cc3)o2)C1=O |  | inconclusive: 20 µM [inhibitor, partial curve] |
| OCc1ccncc1.OCc1ccncc1.[Cl][Pt]([Cl])([Cl])[Cl] |  | inconclusive: 6.31 µM [inhibitor, single point] |
| Cn1c2ccccc2c2cc(C(=O)NNS(=O)(=O)c3ccc(F)cc3)sc21 |  | inconclusive: 31.6 µM [inhibitor, partial curve] |
| CCCOC(=O)c1ccc(NC(=O)Oc2ccccc2)cc1 |  | inconclusive: 31.6 µM [inhibitor, partial curve] |
| Cc1cc(C)c2nc3s/c(=C/c4ccc5c(c4)n(C)c(=O)n5C)c(=O)n3c2c1 |  | active: 15.8 µM |
| O=C(CSC(=S)N1CCCCC1)N1N=CCC1c1ccccc1 (stereo not drawn) | inactive: -14.6% |  |
| COc1cccc(CNC(=O)CCl)c1 | inactive: -21.6% |  |
| C/C=C/c1ccc(OCCCCOc2ccc(OC)cc2)c(OC)c1 |  | inconclusive: 7.08 µM [inhibitor, single point] |
| CC(=O)Nc1ccc(Nc2ncnc3c2cnn3-c2ccccc2)cc1 |  | inconclusive: 35.5 µM [inhibitor, partial curve] |
| CCCOc1ccc(-c2nc(C#N)c(NCC3CCCO3)o2)cc1 (stereo not drawn) |  | inconclusive: 25.1 µM [inhibitor, partial curve] |
| O=C(O)C1C2C=CC(C2)C1C(=O)NC1CCS(=O)(=O)C1 (stereo not drawn) | inactive: -11.5% |  |
| CC(=O)C1=C(C)NC(SCC(=O)c2ccc(Cl)cc2)=C(C#N)C1c1ccco1 (stereo not drawn) |  | active: 31.6 µM |
| O=CN1CC(=O)N(c2ccccc2)c2c([nH]c3ccccc23)C1 |  | active: 22.4 µM |
| O=C(CSCc1ccco1)Nc1cc(C(F)(F)F)ccc1N1CCOCC1 |  | active: 28.2 µM |
| c1ccc(-c2nc3ccccn3c2NCc2ccc3c(c2)OCO3)cc1 |  | inconclusive: 28.2 µM [inhibitor, partial curve] |
| Cc1ccccc1OCC(O)Cn1c(SC(C)C)nc2c1c(=O)[nH]c(=O)n2C (stereo not drawn) |  | active: 14.1 µM |
| Oc1cc(O)c2c(c1)O[C@H](c1ccc(O)c(O)c1)[C@@H](O)C2 | inactive: -6.08% and inactive: -7.88% |  |
| CN(C)c1ccc(C2(c3ccc(N(C)C)cc3)OC(=O)c3cc(N(C)C)ccc32)cc1 |  | inconclusive: 15.8 µM [inhibitor, single point] |
| Cn1c(=O)c2[nH]c(SCCN3CCOCC3)nc2n(C)c1=S |  | active: 5.62 µM |
| Cc1ccc(CCNC(=O)C2CCC(CNc3c(N4CCCC4)c(=O)c3=O)CC2)cc1 (stereo not drawn) |  | active: 25.1 µM |
| CCC(C)CCCCC(=O)NC(CCN)C(=O)NC(C(=O)NC(CCN)C(=O)NC1CCNC(=O)C(C(C)O)NC(=O)C(CCN)NC(=O)C(CCN)NC(=O)C(CC(C)C)NC(=O)C(Cc2ccccc2)NC(=O)C(CCN)NC1=O)C(C)O (stereo not drawn) | inactive: -1.86% |  |
